Experimental data as given in PubChem BioAssay AID686970 (National Center for Advancing Translational Sciences (NCATS), 2013).
About 6,000 (1.7%) of roughly 360,000 compounds were called active. This list was built around the results that the source calls inconclusive (neither active nor inactive); the mix of calls is not that of the screen. Calls follow the shape of the dose curve; as a rule, active = well fitted cell-killing curve with a large enough effect; inconclusive = small, poorly fitted or top-dose-only effect, or effect the other way; inactive = flat fitted curve, though single readings scatter. No potency is given beside an inconclusive call; the fits are too rough.

Assay: qHTS for induction of synthetic lethality in tumor cells producing 2HG: qHTS for the HT-1080-NT fibrosarcoma cell line;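 also: NT is the 2HG producing partner of a matched IDH1 knockdown line; nearly all actives have a fitted effect of over 55% in size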;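 as to activity, negative = less viability: 0% = DMSO-treated cells and -100% = media-only wells without cells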
Conditions: HT-1080-NT fibrosarcoma viability, CellTiter-Glo ATP luminescence, 48 h; activity, negative = less viability: at 46.1 µM (top of the series) unless noted
In short: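 Toxicity toward the 2HG-producing NT line was scored as %Activity, normalised to DMSO and no-cell wells, from CellTiter-Glo luminescence after 48 hours' treatment.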
Potency is read from the fitted curve at half-maximal effect; tags tell the direction and shape of the fitted curve.

Structure (SMILES)	Potency	activity, negative = less viability
COc1ccc(/C=N/NC(=O)NC23CC4CC(CC(C4)C2)C3)c(OC)c1	inconclusive [cytotoxic, single point]	
C[C@H](CO)N1C[C@H](C)[C@@H](CN(C)C(=O)NC2CCCCC2)Oc2ccc(NC(=O)Nc3ccc(C(F)(F)F)cc3)cc2C1=O	inconclusive [cytotoxic, single point]	
COc1ccc(C(=O)Nc2nc3ccccc3s2)c(OC)c1	active: 20.6 µM	
COc1ccc(OC)c(CCNC(=O)CCc2nnc3ccc(N4CCCCC4)nn23)c1	inconclusive [rising, partial curve]	
CCC/C=C/c1ccc(CN2C(C(C)C)C(=O)N(Cc3cn(Cc4ccco4)nn3)CCS2(=O)=O)cc1 (centres undefined)	inconclusive [cytotoxic, single point]	
CCOc1ccccc1C(=O)NCC(=O)N1CCN(Cc2ccc3c(c2)OCO3)CC1	inconclusive [rising, single point]	
O=C(CSc1nnnn1-c1ccc(Cl)c(C(=O)O)c1)NC(c1ccccc1)c1ccccc1		inactive: 15.9%
Cc1[nH]n(-c2ccc([N+](=O)[O-])cc2)c(=O)c1C=NCCN1CCN(C(=O)c2ccccc2)CC1	inconclusive [cytotoxic, partial curve]	
CCN(CCNC(=O)C1CCCN(Cc2nc(-c3ccc(OC)cc3)oc2C)C1)c1ccccc1 (centres undefined)	inconclusive [cytotoxic, single point]	
CC(O)(c1ccccc1)c1nc(-c2cc3ccccc3o2)cs1 (centres undefined)	inconclusive [cytotoxic, single point]	
CC(C)n1cc(/C=C/c2cc[n+](C)cc2)c2ccccc21	inconclusive [cytotoxic, partial curve]	
COc1ccc(CN2C(=O)c3cccc4cccc(c34)C2=O)cc1		inconclusive: 30.4%
NC(Cc1ccc(Cl)cc1)c1csc(NC(=O)NCC2CCCCC2)n1 (centres undefined)	active: 16.4 µM	
COC(=O)[C@]12CCCCC=C1N(CCC1=CCCCC1)C(=O)[C@H](CC(=O)NCC1CCCCC1)C2	inconclusive [cytotoxic, single point]	
CC1(C)Cc2c(c(N3CCOCC3)nc3snc(Br)c23)CO1	inconclusive [cytotoxic, partial curve]	
CCCCCCCCCC[n+]1cccc2c3ccccc3ccc21	active: 4.11 µM	
CCn1c2c(c(=N)c3c1CCC3)CCCC2	inconclusive [cytotoxic, single point]	
O=C(CNC(=O)c1ccccc1)N/N=C/c1cc(Br)ccc1O	inconclusive [cytotoxic, single point]	
O=C(CCc1nnc2ccc(N3CCC4(CC3)OCCO4)nn12)N1CCCCC1		inactive: 3.65%
CCOC(=O)C1(Nc2nccs2)Sc2ccccc2NC1=O (centres undefined)	active: 10.3 µM	
CC(C)n1c(SCC(=O)Nc2nncs2)nnc1C1CC1	inconclusive [rising, single point]	
CCn1ncc(C2=NOC(C(=O)NCc3ccc(OC)cc3)C2)c1C (centres undefined)	inconclusive [cytotoxic, single point]	

Structure (SMILES)	Potency	activity, negative = less viability
O=C1/C(=C/c2ccncc2)SC(=S)N1Nc1ccccc1	inconclusive [cytotoxic, full curve]	
Cc1ccc(C(=O)N/C(=C\c2ccc(-c3ccccc3[N+](=O)[O-])o2)C(=O)NCCCN2CCOCC2)cc1	inconclusive [cytotoxic, partial curve]	
CCOC(=O)C1CCCN(C(=O)c2cc(-c3ccc(C)cc3)on2)C1 (centres undefined)		inactive: 0.496%
CC(C)(C)c1ccc(C(=O)N2CCC2(C)C(=O)Nc2cccc3ccccc23)cc1 (centres undefined)	inconclusive [cytotoxic, single point]	
COc1ccccc1OCCNC(=O)C1CC(=O)N(c2ccccc2OC)C1 (centres undefined)		inactive: 6.26%
Cc1cc(O)c(C)c(O)c1/C=N/NC(=O)c1cccnc1	inconclusive [cytotoxic, full curve]	
COc1ccccc1NC(=O)C(C)OC(=O)c1cc2ccccc2[nH]1 (centres undefined)	inconclusive [cytotoxic, single point]	
CCOC(=O)C1NN=C(C(=O)c2ccccc2)C1c1ccc(Cl)cc1 (centres undefined)		inactive: 20.8%
Cc1cc(Br)ccc1OCCNCc1ccccc1	inconclusive [cytotoxic, partial curve]	
O=[N+]([O-])c1ccc(NC(=S)NCCc2ccc(F)cc2)cc1	inconclusive [cytotoxic, single point]	
O=C(O)CN1C(=O)/C(=C\c2cc(Br)ccc2OCc2ccc(Cl)cc2Cl)SC1=S	inconclusive [cytotoxic, single point]	
COc1cc(S(=O)(=O)Nc2ccc3nc(C)sc3c2)ccc1NC(C)=O	inconclusive [cytotoxic, partial curve, poor fit]	
COc1cc(Br)cc(/C=C/c2ccc3cccc(O)c3n2)c1O	inconclusive [cytotoxic, single point]	
Cc1cc(-n2c(SCc3ccccc3F)nc3n[nH]c(C)c3c2=N)ccc1Cl	inconclusive [cytotoxic, single point]	
CC1(Oc2cccc(Cl)c2)CCN(Cc2ccc(OC(F)(F)F)cc2)C1 (centres undefined)	inconclusive [rising, single point]	
COC(=O)Nc1ccc(S(=O)(=O)N2CCC(C)CC2)cc1		inactive: 4.6%
Cc1cc2cc(CCNS(=O)(=O)c3ccc(F)cc3)c(=O)[nH]c2cc1C	inconclusive [cytotoxic, single point]	
CN1CCN(c2cc(N3CCN(C(=O)c4ccco4)CC3)c3c4c(onc24)-c2ccccc2C3=O)CC1	inconclusive [cytotoxic, single point]	
Cc1cccc(N=C2Sc3nc4c(C)c(C)ccc4cc3CN2CCN2CCOCC2)c1	inconclusive [cytotoxic, single point]	
Cc1cc(C)c(-c2csc(NC(=O)C3=NN(c4ccccc4)C(=O)CC3)n2)c(C)c1		inactive: -10.5%
COc1ccc(S(=O)(=O)NCc2ccccn2)cc1NC(=O)c1ccccc1	active: 8.2 µM	
O=[N+]([O-])c1ccc(C2=NN(CCO)C(=Nc3ccc(OC(F)(F)F)cc3)SC2)cc1	inconclusive [cytotoxic, single point]	

Structure (SMILES)	Potency	activity, negative = less viability
CN(C)c1ccc(NC(=O)Nc2ccc3c(c2)c(=O)n(C)n3Cc2ccc(Cl)cc2)cc1	inconclusive [cytotoxic, partial curve]	
CCn1ccnc1CN(C)Cc1cn(-c2cc(C)ccc2C)nc1-c1ccccc1	inconclusive [cytotoxic, partial curve]	
Cc1ccc(N2C3=C(C(=O)CC(C)(C)C3)C(c3cn(C)nc3C)C3=C2CC(C)(C)CC3=O)cc1		inactive: -24.5%
[O-]/C(=C(\C(=S)Nc1ccc(SC(F)F)cc1)[n+]1cccc(CO)c1)c1ccc(Cl)s1	inconclusive [cytotoxic, single point]	
CCCCCCCCN1C(=O)[C@H](CC(=O)N2CCCC2)C[C@@]2(C(=O)OCC)CCCC=C12	inconclusive [cytotoxic, single point]	
Cc1ccc(C(=O)N/C(=C\c2ccc(Cl)cc2)C(=O)NCCN2CCOCC2)cc1		inactive: -11.9%
CC(=O)NNC(=S)Nc1cccc(F)c1	inconclusive [rising, single point]	
S=C(Nc1ccc(Cl)cc1)NC1CC2CCCC(C1)N2C1CCCC1 (centres undefined)	inconclusive [cytotoxic, single point]	
COc1cc(-c2nc3cnccn3c2Nc2ccc(C(C)C)cc2)ccc1O	inconclusive [cytotoxic, single point]	
O=c1ncccn1C1OC(CO)C(O)C1O (centres undefined)		inactive: -4.1%
CC(C)CC1C(=O)N(Cc2cn(CCC3OCCCO3)nn2)CCS(=O)(=O)N1Cc1ccc(-c2ccc(Cl)c(Cl)c2)cc1 (centres undefined)	inconclusive [cytotoxic, single point]	
O=[N+]([O-])c1cccc(C2NCC(c3ccccc3Cl)c3c2[nH]c2ccccc32)c1 (centres undefined)	inconclusive [cytotoxic, single point]	
CCCCCCCC[n+]1cccc2c3ccccc3ccc21	active: 11.6 µM	
Cc1ccc(Oc2ccc(Cl)cc2NC(=O)c2ccc(F)cc2F)cc1		inactive: -2.89%
COc1ccc(/C=N/Nc2nnc(C)n2N)cc1OC	inconclusive [cytotoxic, single point]	
C#CCNC(=O)C1=C[C@@H](c2ccccc2)[C@H](CCCO)[C@@H](OCC)O1	inconclusive [cytotoxic, single point]	
CCC[C@H]1NC(=O)[C@H](C)N(C)C(=O)C(C)(C)C(=O)C(C)NC(=O)[C@H](Cc2ccc(OC)cc2)N(C)C(=O)[C@H](C(C)C)N(C)C(=O)CNC(=O)[C@H](CC(C)C)N(C)C(=O)CNC(=O)[C@H]([C@@H](C)CC)OC(=O)[C@H]1C (some centres undefined)	active: 0.82 µM	
COc1cc(Br)cc(/C=N/NC(=O)Cc2ccc(C(F)(F)F)cc2[N+](=O)[O-])c1O	inconclusive [cytotoxic, partial curve, poor fit]	
Cc1cccc(C(=O)Nc2sc3c(c2C(=O)O)CCCC3)c1	inconclusive [cytotoxic, full curve, poor fit]	
CCCS(=O)(=O)NC(=O)C1(C)CCN(C(=O)c2cc3ccccc3s2)C1 (centres undefined)	inconclusive [rising, partial curve]	
